Measured values taken from paper PMC6265344.
Results are given in words; binding and its absence hold for the method and conditions named. Binding seen in cells or lysates may run through a third protein. Some binding calls cover weakened binding; strength is not graded here. For part of these data: Where a sequence is shown, tags or fusion partners need not be part of it.

The chains behind the UniProt entries cited, without tags or fusion partners.
UniProt Q05639: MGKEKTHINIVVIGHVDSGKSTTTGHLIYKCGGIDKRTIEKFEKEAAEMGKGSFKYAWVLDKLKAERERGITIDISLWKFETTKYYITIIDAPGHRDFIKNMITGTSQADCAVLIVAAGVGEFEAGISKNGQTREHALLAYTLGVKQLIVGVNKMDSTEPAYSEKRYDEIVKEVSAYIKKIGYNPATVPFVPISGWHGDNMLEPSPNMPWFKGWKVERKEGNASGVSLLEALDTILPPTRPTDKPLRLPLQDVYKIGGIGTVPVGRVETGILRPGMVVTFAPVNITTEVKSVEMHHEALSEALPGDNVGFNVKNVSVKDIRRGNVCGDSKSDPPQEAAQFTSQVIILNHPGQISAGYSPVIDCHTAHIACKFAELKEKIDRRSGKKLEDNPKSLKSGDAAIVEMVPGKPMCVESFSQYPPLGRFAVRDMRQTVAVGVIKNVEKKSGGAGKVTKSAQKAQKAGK
UniProt P68104: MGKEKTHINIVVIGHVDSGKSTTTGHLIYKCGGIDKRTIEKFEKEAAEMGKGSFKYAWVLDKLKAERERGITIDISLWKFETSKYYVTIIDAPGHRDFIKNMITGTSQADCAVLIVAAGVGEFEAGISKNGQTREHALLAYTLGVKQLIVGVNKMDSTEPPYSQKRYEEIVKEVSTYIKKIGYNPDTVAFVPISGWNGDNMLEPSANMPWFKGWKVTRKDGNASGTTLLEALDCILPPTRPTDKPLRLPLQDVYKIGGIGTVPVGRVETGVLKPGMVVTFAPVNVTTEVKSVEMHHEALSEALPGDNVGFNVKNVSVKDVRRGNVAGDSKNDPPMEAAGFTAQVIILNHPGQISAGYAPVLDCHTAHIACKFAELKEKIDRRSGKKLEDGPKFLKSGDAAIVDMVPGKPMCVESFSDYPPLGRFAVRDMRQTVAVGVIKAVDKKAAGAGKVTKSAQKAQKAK
UniProt P19525: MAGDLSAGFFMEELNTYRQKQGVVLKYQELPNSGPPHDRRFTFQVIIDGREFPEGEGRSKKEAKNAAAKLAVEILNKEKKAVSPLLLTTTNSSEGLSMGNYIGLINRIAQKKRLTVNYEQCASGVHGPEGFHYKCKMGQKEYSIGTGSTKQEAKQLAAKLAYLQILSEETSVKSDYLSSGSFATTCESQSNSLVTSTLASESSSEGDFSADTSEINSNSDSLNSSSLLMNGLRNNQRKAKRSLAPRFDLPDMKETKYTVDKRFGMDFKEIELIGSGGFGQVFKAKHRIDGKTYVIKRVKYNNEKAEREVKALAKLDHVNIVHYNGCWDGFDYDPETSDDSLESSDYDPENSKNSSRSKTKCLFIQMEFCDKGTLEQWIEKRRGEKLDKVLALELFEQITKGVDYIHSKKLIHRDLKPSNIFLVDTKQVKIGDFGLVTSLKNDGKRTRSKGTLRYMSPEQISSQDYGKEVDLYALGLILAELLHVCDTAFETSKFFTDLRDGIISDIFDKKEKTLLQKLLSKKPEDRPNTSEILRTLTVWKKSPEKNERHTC
UniProt Q9NYA1: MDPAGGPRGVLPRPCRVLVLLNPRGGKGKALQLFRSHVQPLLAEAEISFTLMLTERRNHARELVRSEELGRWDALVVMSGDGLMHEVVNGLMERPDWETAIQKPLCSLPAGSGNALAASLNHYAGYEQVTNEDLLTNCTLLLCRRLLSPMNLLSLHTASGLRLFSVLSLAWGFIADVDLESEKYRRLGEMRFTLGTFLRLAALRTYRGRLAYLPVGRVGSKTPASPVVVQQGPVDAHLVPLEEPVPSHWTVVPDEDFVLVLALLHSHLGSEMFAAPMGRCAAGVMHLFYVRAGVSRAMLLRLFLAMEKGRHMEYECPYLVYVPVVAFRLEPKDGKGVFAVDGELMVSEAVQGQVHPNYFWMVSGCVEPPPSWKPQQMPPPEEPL

Legend:
[1] = biological target: eEF1A2 (endogenous, HeLa wt cells) (human (endogenous in HeLa)) (UniProt Q05639); assay: condition: only cells incubated for 1 h with 450 nM plitidepsin; proximity ligation; Duolink PLA in HeLa wt cells treated with 450 nM plitidepsin for 1 h; fluorescence microscopy
[2] = biological target: eEF1A2 (endogenous, HeLa wt cells) (human (endogenous in HeLa)) (UniProt Q05639); assay: proximity ligation; Duolink PLA in HeLa wt cells treated with vehicle (0.1% DMSO) for 1 h; anti-eEF1A2 and anti-PKR antibodies; fluorescence microscopy
eEF1A2-tGFP (human) [3] = biological target: eEF1A2-tGFP (human) (UniProt Q05639); assay: co-IP; whole extracts of wt, eEF1A1-tGFP or eEF1A2-tGFP HeLa cells (1% Triton X-100, 50 mM Tris-HCl pH 7.4, 150 mM NaCl, 1 mM EDTA); IP overnight at 4 °C with anti-tGFP or anti-PKR antibody-coated beads; Western blot with PKR or tGFP antibodies
eEF1A1-tGFP = eEF1A1-tGFP (UniProt P68104); assay: as above
eEF1A2-tGFP (human) [4] = biological target: eEF1A2-tGFP (human) (UniProt Q05639); assay: condition: only cells treated with 450 nM plitidepsin; co-IP; as a2, but eEF1A2-tGFP HeLa cells treated with 450 nM plitidepsin for different times before lysis; IP with anti-tGFP or anti-PKR antibodies; band densitometry
[5] = biological target: Interferon-induced, double-stranded RNA-activated protein kinase (PKR) (human (endogenous in HeLa)) (UniProt P19525); assay: co-IP; whole extracts of wt, eEF1A1-tGFP or eEF1A2-tGFP HeLa cells (1% Triton X-100, 50 mM Tris-HCl pH 7.4, 150 mM NaCl, 1 mM EDTA); IP overnight at 4 °C with anti-tGFP or anti-PKR antibody-coated beads; Western blot with PKR or tGFP antibodies
[6] = biological target: Interferon-induced, double-stranded RNA-activated protein kinase (PKR) (human (endogenous in HeLa)) (UniProt P19525); assay: condition: only cells treated with 450 nM plitidepsin; co-IP; as a2, but eEF1A2-tGFP HeLa cells treated with 450 nM plitidepsin for different times before lysis; IP with anti-tGFP or anti-PKR antibodies; band densitometry
eEF1A2-tGFP (human) [7] = biological target: eEF1A2-tGFP (human) (UniProt Q05639); assay: co-IP; extracts of HeLa cells ectopically overexpressing human eEF1A2-tGFP and myc-tagged PRDX1, SPHK1 or SPHK2; the bait of the IP is not given; the SPHK1 and SPHK2 interactions were also tested after plitidepsin treatment (not affected)
eEF1A2-tGFP (human) [8] = biological target: eEF1A2-tGFP (human) (UniProt Q05639); assay: co-IP; as a6 for eEF1A2-tGFP and myc-PRDX1, with cells treated with plitidepsin over time before lysis

## Interferon-induced, double-stranded RNA-activated protein kinase (PKR) (from UniProt P19525 1-551) (enzyme)
[1]
  binding: no binding
[2]
  binding: binds
eEF1A2-tGFP (human) [3]
  binding: binds
eEF1A1-tGFP
  binding: no binding
eEF1A2-tGFP (human) [4]
  binding: no binding

## eEF1A1-tGFP (from UniProt P68104 1-462)
[5]
  binding: no binding

## eEF1A2-tGFP (from UniProt Q05639 1-463)
[5]
  binding: binds
[6]
  binding: no binding

## myc-tagged human SPHK1 (from UniProt Q9NYA1 1-384) (enzyme)
eEF1A2-tGFP (human) [7]
  binding: binds

B1: myc-tagged human PRDX1 (enzyme, UniProt Q06830 1-199)
chain: MSSGNAKIGHPAPNFKATAVMPDGQFKDISLSDYKGKYVVFFFYPLDFTFVCPTEIIAFSDRAEEFKKLNCQVIGASVDSHFCHLAWVNTPKKQGGLGPMNIPLVSDPKRTIAQDYGVLKADEGISFRGLFIIDDKGILRQITVNDLPVGRSVDETLRLVQAFQFTDKHGEVCPAGWKPGSDTIKPDVQKSKEYFSKQK
eEF1A2-tGFP (human) [7]
  binding: binds
eEF1A2-tGFP (human) [8]
  binding: no binding (condition: cells treated with plitidepsin)

B2: myc-tagged human SPHK2 (enzyme, UniProt Q9NRA0 1-654)
chain: MNGHLEAEEQQDQRPDQELTGSWGHGPRSTLVRAKAMAPPPPPLAASTPLLHGEFGSYPARGPRFALTLTSQALHIQRLRPKPEARPRGGLVPLAEVSGCCTLRSRSPSDSAAYFCIYTYPRGRRGARRRATRTFRADGAATYEENRAEAQRWATALTCLLRGLPLPGDGEITPDLLPRPPRLLLLVNPFGGRGLAWQWCKNHVLPMISEAGLSFNLIQTERQNHARELVQGLSLSEWDGIVTVSGDGLLHEVLNGLLDRPDWEEAVKMPVGILPCGSGNALAGAVNQHGGFEPALGLDLLLNCSLLLCRGGGHPLDLLSVTLASGSRCFSFLSVAWGFVSDVDIQSERFRALGSARFTLGTVLGLATLHTYRGRLSYLPATVEPASPTPAHSLPRAKSELTLTPDPAPPMAHSPLHRSVSDLPLPLPQPALASPGSPEPLPILSLNGGGPELAGDWGGAGDAPLSPDPLLSSPPGSPKAALHSPVSEGAPVIPPSSGLPLPTPDARVGASTCGPPDHLLPPLGTPLPPDWVTLEGDFVLMLAISPSHLGADLVAAPHARFDDGLVHLCWVRSGISRAALLRLFLAMERGSHFSLGCPQLGYAAARAFRLEPLTPRGVLTVDGEQVEYGPLQAQMHPGIGTLLTGPPGCPGREP
eEF1A2-tGFP (human) [7]
  binding: binds
